# According to PubChem BioAssay AID1745845 (National Center for Advancing Translational Sciences (NCATS), 2022):
# The campaign covered roughly 360,000 compounds. About 2,600 (0.72%) were called active. The inconclusive results got no clear call from the source; some entries with a clear call stand among them for comparison. Calls come from the whole dose curve; as a rule, active = well fitted inhibition curve with a large enough effect; inconclusive = small, poorly fitted or top-dose-only effect; inactive = no such curve, though single readings can be large or run the other way. Where the call is inconclusive, the potency comes from a doubtful curve fit. Some structures have more than one record in an assay (separate samples or runs), and their calls can disagree.
# Assay: Primary qHTS for Inhibitors of ATXN expression; note: nearly all actives have a fitted effect of over 55% in size
# Settings: HEK-293 ATXN2-luciferase reporter, luminescence, 24 h; activity change, negative = inhibition: at 57 µM (top of the series)
# In short: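 qHTS (up to 57 uM final) was run with 24 h compound exposure of reporter cells at 37 °C. Each well was multiplexed: SteadyGlo luminescence measured ATXN2-luciferase expression after a fluorogenic Gly-Phe-AFC viability readout (25 uM final).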
# % is set by controls: 0 for no effect and ±100 for the full control effect; potency is the fitted concentration of half-maximal effect; tags give direction and shape of the fitted curve.
Compound,"activity change, negative = inhibition",Potency
CC1(C)N=C(N)N=C(N)N1c1cccc(CN)c1,inactive: 10.7%,–
CCN1CCN(Cc2ccc(OCc3ccccc3)cc2)CC1,–,"inconclusive: 17.8 µM [inhibitor, single point]"
Cc1cc(C)cc(NS(=O)(=O)c2ccc(NC(=S)NC(=O)c3cccs3)cc2)c1,–,"inconclusive: 22.4 µM [inhibitor, single point]"
CCCNC(=O)C1CCN(Cc2cc3ccccc3n2Cc2ccccc2)CC1,–,"inconclusive: 20 µM [inhibitor, partial curve, poor fit]"
COc1ccc(-c2nc3ccc(C)cn3c2CC(C)(C)C)cc1OC,–,active: 28.2 µM
CC1(C)CCC(c2ccc(Cl)cc2)=C(CN2CCN(c3ccc(C(=O)NS(=O)(=O)c4ccc(N[C@H](CCN5CCOCC5)CSc5ccccc5)c(S(=O)(=O)C(F)(F)F)c4)cc3)CC2)C1,–,"inconclusive: 38.5 µM [inhibitor, single point]"
Nc1nonc1C(=O)NCCNCc1c(OCc2ccccc2F)ccc2ccccc12,–,"inconclusive: 11.2 µM [inhibitor, partial curve]"
CC1CC(C)C(=O)C(C(CC2CC(=O)NC(=O)C2)OC(=O)CC(=O)c2ccccc2)C1 (stereo unspecified),–,active: 3.55 µM
COc1ccc(OCc2n(CC(=O)OC3CC(C)CCC3C(C)C)c3ccccc3[n+]2C)cc1 (stereo unspecified),–,"inconclusive: 31.6 µM [inhibitor, single point]"
COCCCC/C(=N\OCCN)c1ccc(C(F)(F)F)cc1,–,active: 15.8 µM
Clc1ccccc1Nc1nc(-c2cccnc2)cs1,inactive: 173%,–
Cc1ccc(-c2nn(-c3ccccn3)c(=O)c3ccccc23)cc1,inactive: -26.4%,–
Cc1ccc(-c2nc3ccc(Br)cn3c2Cc2ccccc2)cc1,inactive: 40.8%,–
Cc1cccc(Nc2cc(C)nc3nc(Cc4ccc(Cl)cc4)nn23)c1,–,"inconclusive: 25.1 µM [inhibitor, single point]"
Cc1cc(C(=O)N/N=C/c2cc(Br)cc(Br)c2OC(=O)c2cccc(F)c2)n[nH]1,–,"inconclusive: 3.55 µM [inhibitor, full curve, poor fit]"
COc1ccc2nc(Sc3c([N+](=O)[O-])nc(C)n3Cc3ccccc3)[nH]c2c1,inactive: -16.2%,–
CC(=O)N/N=C/c1cc(C(C)C)cc(/C=N/NC(C)=O)c1O,–,"inconclusive: 31.6 µM [inhibitor, partial curve, poor fit]"
CC(Oc1ccccc1)C(=O)Nc1ccc(C(=O)OCc2cc(=O)n3ccsc3n2)cc1 (stereo unspecified),–,"inconclusive: 28.2 µM [inhibitor, single point]"
O=C(NCc1ccco1)c1ccc(Cn2c(=O)c3ccccc3n(Cc3cccc(F)c3)c2=O)cc1,–,"inconclusive: 22.4 µM [inhibitor, single point]"
O=C(N/N=C/C=C\c1ccco1)c1ccccn1,inactive: 38%,–
CCN(CC)CCNC(=O)c1ccc2c(=O)n3nc(Nc4cccc(Cl)c4C)sc3nc2c1,–,"inconclusive: 2.24 µM [inhibitor, full curve]"
COc1ccc2c(c1)-c1nc(NC(=O)c3cccs3)sc1CC2,inactive: 25.9%,–

Compound,"activity change, negative = inhibition",Potency
COc1ccc(Cn2c(CCC(=O)Nc3cccc(Cl)c3)nc3cccnc32)cc1,inactive: -16.5%,–
O=C(Nc1ccccc1)Nc1nnc(CSCc2ccccc2Cl)s1,–,"inconclusive: 39.8 µM [inhibitor, partial curve, poor fit]"
O=C(Nc1cccc(Cl)c1)Nc1nnc(CSCCOc2ccc(Cl)cc2)s1,–,"inconclusive: 3.98 µM [inhibitor, full curve]"
CCOC(=O)c1[nH]c2ccccc2c1NC(=S)Nc1cccc(C)c1C,inactive: 27.6%,–
Cc1ccc(OCCSc2nc3ccccc3n2CC(=O)N2CCCCC2)c(C)c1,–,"inconclusive: 39.8 µM [inhibitor, single point]"
COc1ccc(S(=O)(=O)N2CCC(C(=O)NCC(=O)Nc3c(C)cccc3C)CC2)cc1OC,–,"inconclusive: 2.51 µM [inhibitor, partial curve]"
O=C1N[C@@H](Cc2ccccc2)COC(=O)[C@H](Cc2ccc(F)cc2)C/C=C\C[C@@H]1CC(=O)N(CCO)Cc1ccccc1,–,"inconclusive: 39.8 µM [inhibitor, single point]"
Cc1ccc(-c2csc(Cc3nc(-c4ccc5c(c4)CCC(=O)N5)cs3)n2)cc1,inactive: -19%,–
Cc1cc(C)cc(C(=O)NC(=S)Nc2ccc3c(c2)OCCO3)c1,inactive: 21.4%,–
CN1CCN(C(=O)CCN2C(=O)/C(=C\c3ccc(F)cc3)SC2=S)CC1,–,"inconclusive: 39.8 µM [inhibitor, single point]"
Cc1cccc(NC(=O)CN2C(=O)COc3ccc(S(=O)(=O)Nc4ccccc4)cc32)c1C,inactive: 6.21%,–
CC(C)Oc1cccc(C(=O)NC(=S)Nc2ccccc2)c1,inactive: 43.8%,–
Cc1ccccc1Cn1cc(NC(=O)c2cc(-c3ccc(Cl)cc3)on2)cn1,–,"inconclusive: 0.316 µM [inhibitor, partial curve, poor fit]"
Cc1ccc(Cl)cc1N1CCN(S(=O)(=O)c2ccc3oc(=O)c4ncn(C)c4c3c2)CC1,inactive: 3.92%,–
C/[N+]([O-])=C\c1cccc(OCCN2CCN(c3ncc(C(F)(F)F)cc3Cl)CC2)c1,–,"inconclusive: 7.94 µM [inhibitor, single point]"
COc1ccc(CN2CCC(C(=O)N(C)CCc3ccc(OC)c(OC)c3)CC2)c(OC)c1,inactive: -19.3%,–
O=C(c1cc(S(=O)(=O)N2CCN(c3ccccc3)CC2)ccc1Cl)N1CCCCCCC1,–,"inconclusive: 25.1 µM [inhibitor, partial curve, poor fit]"
O=C(Nc1ccc[n+](CC(=O)c2cccc3ccccc23)c1)c1ccccc1,–,"inconclusive: 17.8 µM [inhibitor, partial curve]"
FC(F)(F)c1cccc(NC(=S)N(CCCN2CCCC2)Cc2cccn2Cc2ccc(Cl)cc2)c1,–,active: 15.8 µM
O=C(CSc1nc2c([nH]c3ccccc32)c(=O)n1-c1cccc(C(F)(F)F)c1)N1CCCC1,inactive: -8.04%,–
COCCn1c(-c2ccc(-c3ccccc3Cl)o2)nc2c1c(=O)[nH]c(=O)n2CC(C)C,–,"inconclusive: 28.2 µM [inhibitor, partial curve, poor fit]"
CCOc1ccc(NC(=O)C2CCN(S(=O)(=O)c3ccc4c(c3)CC(C)N4C(C)=O)CC2)cc1 (stereo unspecified),–,"inconclusive: 17.8 µM [inhibitor, partial curve, poor fit]"

Compound,"activity change, negative = inhibition",Potency
Cc1ccc(Cl)cc1N1CCN(C(=O)c2cnn(-c3ccc(Cl)cc3)c2C2CCNCC2)CC1,–,active: 31.6 µM
Cc1c(C(=O)Nc2cccc(Cl)c2)cn2c(nc3ccccc32)c1C#N,–,"inconclusive: 39.8 µM [inhibitor, partial curve, poor fit]"
COc1cc(NC(=O)c2ccc(S(=O)(=O)N(C)c3ccccc3)cc2)cc(OC)c1,inactive: -15.6%,–
O=C(/C=C/c1ccccn1)c1cc(Cl)cc(Cl)c1O,–,"inconclusive: 35.5 µM [inhibitor, partial curve, poor fit]"
C[C@@H](NC(=O)c1nc[nH]c1C(=O)N[C@@H](CCCCNC(=O)OC(C)(C)C)C(=O)OC(C)(C)C)c1ccccc1,–,"inconclusive: 31.6 µM [inhibitor, single point]"
CN(Cc1ccccc1)C(=O)C1CCCN(Cc2cccc(Cl)c2)C1 (stereo unspecified),–,"inconclusive: 39.8 µM [inhibitor, single point]"
O=C(COc1ccc(Br)cc1CNCCc1ccccc1)NCc1ccccc1,–,"inconclusive: 39.8 µM [inhibitor, single point]"
Cc1ccc(C)c(OCC(O)CN2CCN(CCN3C(=O)c4cccc5cccc(c45)C3=O)CC2)c1 (stereo unspecified),–,"inconclusive: 35.5 µM [inhibitor, single point]"
CCOC(=O)/C(=C\c1cccc(O)c1)c1nc2sc(C)c(C)c2c(=O)[nH]1,–,active: 15.8 µM
CO/N=C/C=C1/N(C)c2ccccc2C1(C)C,inactive: -6.81%,–
Cc1[nH]c(=O)[nH]c(=O)c1Sc1ccccc1[N+](=O)[O-],inactive: 27.6%,–
O=c1[nH]nc(Sc2ncnc3sccc23)n1CCc1ccccc1,inactive: -6.76%,–
CCOC(=O)C1CCCN(C(=O)CCS(=O)(=O)c2cc3c(cc2Cl)NC(=O)CO3)C1 (stereo unspecified),inactive: -0.304%,–
CCCCCCc1cc2cc(S(=O)(=O)c3ccc(F)c(Cl)c3)c(=O)oc2cc1O,–,"inconclusive: 28.2 µM [inhibitor, single point]"
C=C1CC(COc2ccc3c(C)c(Cl)c(=O)oc3c2)(c2ccccc2)OC1=O (stereo unspecified),–,"inconclusive: 10.6 µM [inhibitor, partial curve, poor fit]"
O=C(CN1CCN(c2cccc(Cl)c2)CC1)Nc1ccc(S(=O)(=O)N2CCOCC2)cc1,–,"inconclusive: 5.01 µM [inhibitor, partial curve, poor fit]"
CS(=O)(=O)Nc1cccc(NC(=O)c2cccc3c(-c4cccc(C(N)=O)c4)coc23)c1,–,"inconclusive: 39.8 µM [inhibitor, single point]"
COc1cccc(NC(=O)Nc2cccc(C(=O)O)c2)c1,–,"inconclusive: 2.38 µM [inhibitor, partial curve, poor fit]"
C=CCSC(=C(C#N)C#N)c1cc2c([nH]1)CCCC2,inactive: -30.1%,–
CCn1c(SCc2ccc(Cl)cc2Cl)nc2nc3c(cc2c1=O)CCCC3,–,"inconclusive: 22.4 µM [inhibitor, single point]"
CN1/C(=C\C(=S)Nc2ccccc2)C(C)(C)c2ccccc21,–,"inconclusive: 17.8 µM [inhibitor, partial curve, poor fit]"
Nc1cccc2c1C(=O)N(C(=O)/C=C/c1ccc(F)cc1)C2=O,–,"inconclusive: 1.06 µM [inhibitor, full curve, poor fit]"
